Measured values taken from the supplement of paper PMC8183993.
Structures can show the parent of a compound that is named as a salt. ± gives the standard deviation of the averaged measurements. In all, about 3,200 compounds were measured (“nuclei count (viability) relative to DMSO”: median about 99, lowest 2% from about 16 on). The list shows a part of the results.

The molecules below were run on U2OS (assay: nuclei count (viability) relative to DMSO (% of DMSO); higher = more viable cells). Settings: 10 µM; 24 h.
Procedure: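 Primary image-based screen in U2OS cells: compounds at 10 uM for 24 h, then a 1 h o-propargyl-puromycin (OPP) pulse, click labelling, and high-throughput microscopy. Mean cytoplasmic OPP intensity and nuclei count were normalised to DMSO wells within each plate (DMSO = 100) and averaged over triplicate plates.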

Row | SMILES | nuclei count
1 | O=c1ccc2[nH]cc(C3=CCNCC3)c2[nH]1 | 107
2 | FC(F)(F)c1cccc(C2=CCN(CCc3ccc4ccccc4c3)CC2)c1 [Xaliproden hydrochloride] | 93.9
3 | CC(=O)NCCc1c[nH]c2ccccc12 [N-Acetyltryptamine] | 102
4 | CC1=C2C[C@H]3[C@@H](CC=C4C[C@@H](O)CC[C@@]43C)[C@@H]2CC[C@]12O[C@@H]1C[C@H](C)CN[C@H]1[C@H]2C [Cyclopamine] | 87.2
5 | NCCc1c[nH]c2ccc(C(N)=O)cc12 [5-Carboxamidotryptamine maleate] | 99.2
6 | CC1(C)[C@@H](O)C[C@H]2[C@](C)(O)[C@@H]3CC[C@@H]4[C@@H](O)[C@@]3(C[C@@H](O)[C@@]21O)C[C@@]4(C)O [Grayanotoxin III] | 98.7
7 | O=c1[nH]c2ccc(Cl)cc2c(N[C@@H]2CN3CCC2CC3)c1-c1nc2ccccc2[nH]1 | 36 ± 0.89
8 | Clc1ccc(N2CCN(Cc3c[nH]c4ncccc34)CC2)cc1 [L-745,870 trihydrochloride] | 97.4
9 | CC1OC(OC2/C=C/C=C/C=C/C=C/CC/C=C/C=C/[C@H](C)[C@@H](O)[C@@H](C)[C@H](C)OC(=O)CC(O)CC(O)CC(O)CCC(O)C(O)C[C@]3(O)CC(O)C(C(=O)O)C(C2)O3)C(O)C(N)C1O (stereo partly drawn) [Nystatine] | 107
10 | CN1CCN(c2ccc3ccccc3n2)CC1 [N-Methylquipazine dimaleate] | 98.9
11 | NCCCNCCSP(=O)(O)O [Amifostine] | 93.5
12 | CCN(CC)C(=O)c1ccc(C2=CC3(CCNCC3)Oc3cccc(O)c32)cc1 | 99.3
13 | O=C(CCCN1CCC2(CC1)C(=O)N(Cc1cccc(F)c1)CN2c1ccccc1)c1ccc(F)cc1 [3'-Fluorobenzylspiperone maleate] | 29.4
14 | C=C(C)CN1CC[C@@]23c4c5ccc(O)c4O[C@H]2c2[nH]c4ccccc4c2C[C@]3(O)C1C5 [SDM25N hydrochloride] | 105
15 | C[C@]12CCC(=O)C(O)=C1CC[C@@H]1[C@@H]2CC[C@]2(C)C(=O)CC[C@@H]12 [Formestane] | 96.5 ± 10
16 | CNC(C)(C)Cc1ccccc1 [Mephentermine hemisulfate] | 91.9
17 | c1ccc(C2CC2)c(OCC2=NCCN2)c1 [Cirazoline hydrochloride] | 98.2
18 | CN1[C@@H]2CC[C@H]1C[C@@H](OC(=O)C(CO)c1ccccc1)C2 (stereo partly drawn) [Atropine] | 96.2
19 | CN1[C@@H]2CC[C@H]1C[C@@H](OC(=O)C(CO)c1ccccc1)C2 (stereo partly drawn) [Atropine sulfate monohydrate] | 94.5
20 | CC(C)C[C@H]1C(=O)N2CCC[C@H]2[C@]2(O)O[C@](NC(=O)[C@@H]3C=C4c5cccc6[nH]c(Br)c(c56)C[C@H]4N(C)C3)(C(C)C)C(=O)N12 [Bromocriptine mesylate] | 98.7
21 | CC(C)C[C@H]1C(=O)N2CCC[C@H]2[C@]2(O)O[C@](NC(=O)[C@@H]3C=C4c5cccc6[nH]c(Br)c(c56)C[C@H]4N(C)C3)(C(C)C)C(=O)N12 [Bromocryptine mesylate] | 90.9
22 | c1ccc(CCCN2CCN(CCOC(c3ccccc3)c3ccccc3)CC2)cc1 | 99.2

Row | SMILES | nuclei count
23 | C#CCOC(=O)C1=CCCN(C)C1 [Arecaidine propargyl ester tosylate] | 89
24 | O=C(Cc1ccc(Cl)c(Cl)c1)N1CCCCC1CN1CCCC1 (stereo not drawn) | 97.3
25 | CCC1=C[C@H]2CN3CCc4c([nH]c5ccccc45)[C@](C(=O)OC)(C2)[C@H]13 [Catharanthine] | 97.6
26 | CC(C)NCC(O)c1ccc(N)c(C#N)c1 (stereo not drawn) [Cimaterol] | 80.2
27 | CC[C@@H]1[C@@H](C)O[C@@](O)([C@@H](C)[C@H](O)[C@H](C)[C@H]2OC(=O)/C=C/C=C/[C@H](C)[C@@H]([C@@H](C)[C@@H](O)[C@H](C)[C@@]3(O)C[C@@H](O[C@H]4C[C@H](O)[C@H](O)[C@H](C)O4)[C@H](CC)[C@@H](C)O3)OC(=O)/C=C/C=C/[C@@H]2C)C[C@H]1O[C@H]1C[C@H](O)[C@H](O)[C@H](C)O1 [Azalomycin-B] | 107
28 | c1ccc(CC(c2ccccc2)N2CCCCC2)cc1 (racemic) [(±)-1-(1,2-Diphenylethyl)piperidine maleate] | 103
29 | CCc1c(C(=O)C(N)=O)c2c(OCC(=O)O)cccc2n1Cc1ccccc1 | 106
30 | CC(=O)[C@H]1CC[C@H]2[C@@H]3CC[C@@H]4CC(=O)CC[C@]4(C)[C@H]3CC[C@]12C [5b-Pregnan-3,20-dione] | 100
31 | CCNCC(O)c1cccc(O)c1 (stereo not drawn) [Etilefrine hydrochloride] | 104
32 | Clc1cccc(SC2CCNCC2)n1 [Anpirtoline hydrochloride] | 83.8
33 | CCOC(=O)c1ncc2[nH]c3ccc(OCc4ccccc4)cc3c2c1COC | 91
34 | CC(C)(N)Cc1ccccc1 [Phentermine hydrochloride] | 90.2
35 | NP(N)(=O)NC(=O)c1ccc(F)cc1 [Flurofamide] | 99.5
36 | COc1ccc2[nH]cc(C3=CCNCC3)c2c1 | 96.9
37 | O=C(O)CCC(CP(=O)(O)O)C(=O)O (stereo not drawn) [PMPA (NAALADase inhibitor)] | 98.6
38 | CC(C)(C)OC(=O)c1ncn2c1[C@@H]1CCCN1C(=O)c1c(Br)cccc1-2 [Bretazenil] | 92.2
39 | CN(C)C(=O)Oc1cccc([N+](C)(C)C)c1 [Neostigmine bromide] | 94.1
40 | Cc1onc(O)c1C[C@H](N)C(=O)O | 102
41 | CNC(=O)Oc1ccc2c(c1)[C@]1(C)CCN(C)[C@@H]1N2C [Eserine hemisulfate salt] | 96.1
42 | COc1ccc(C(CN(C)C)C2(O)CCCCC2)cc1 (stereo not drawn) [Venlafaxine] | 110
43 | CN1[C@@H]2CC[C@H]1CC(OC(=O)N1Cc3ccccc3NC1=O)C2 (stereo partly drawn) [DAU 5884 hydrochloride] | 102
